Reference: the supplement of paper PMC10126150
Values marked as one replicate rest on one cluster of the flow cell; about a third of the high ones do not repeat.

tested on: ATP; test: switch fluorescence ratio, 500 uM ATP over buffer (Cy3 cluster intensity, sum of 5 cycles each) (fold (ratio)); higher = stronger signal-on switching upon ATP binding; sequences stand for … in TCGTCGGCAGCGTCAGATGTGTATAAGAGACAGTTTTTTTTTTTTTTTTTTTTTTTTT…TC; settings: aptamer strand: ATP DNA aptamer (quencher-CACCTGGGGGAGTATTGCGGAGGAAGG + anchor), 100 nM annealed; ATP concentration: 500 uM; one replicate
Method in brief: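 The quencher-labelled ATP aptamer, at 100 nM, was annealed to Cy3-labelled switching-strand clusters on a modified Illumina MiSeq flow-cell. The clusters were imaged in selection buffer, then after 15 min with 500 uM ATP at 22 °C, and this buffer/ATP cycle ran five times with NaOH stripping and re-annealing between runs. Per-cluster fluorescence ratios, summed target-cycle over summed buffer-cycle Cy3 intensity, were averaged per switch-domain sequence. Clusters outside 100-1000 RFU were excluded.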
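Note: ATP exposure 15 min at 22 °C before imaging.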

Sequence | switch fluorescence ratio
TCTTACGCAT | 1.27
GTTAGACGTT | 1.03
TCCGTGCCCT | 2.26
TTGGTCGGCG | 0.906
CCTACGTCAG | 2.58
GTCCTCTGGA | 0.996
AGCGCGGTAG | 1.05
TTGAGAAGAA | 1
GGTCGCCATG | 0.975
TTAGCGCGAT | 1.1
TCGTGTTGTA | 1.03
GAAGGAGACC | 1.01
GCTTGTCTCC | 1.05
AGGTGTCGGC | 0.961
TGCGGCAATC | 1.49
GGAAGCTGGT | 1.01
CTCTCCGGCT | 1.15
TCCATACGGT | 0.984
TTGAATACGA | 1.04
CGAGGCAACC | 1.08
TTGAGAGGCG | 1.05
AAATCTTTGT | 1.02
CTGGGGCGAA | 0.98
GCACGTCCGA | 1.09
TGGTCGATGT | 1.02
GGACTGGTGA | 1.04

Sequence | switch fluorescence ratio
GACCACGTCG | 1.02
TCAAACACCT | 1.35
ATTCAGGTTA | 1.04
TTGGGATAC | 1.08
TCTCTTTAAG | 1
GCTAGATTTT | 1.01
TGGGCCGTTC | 0.959
CGGGATAAAC | 1.07
AATAGGCCGA | 1.03
GAAGTCGAGT | 1.18
ATTGCTGAGT | 0.966
TCCCGGGTGA | 1.02
TATCCAGGGC | 1.03
ACGGAGAATT | 1.08
GTTGCGATGC | 2.41
CTAATTATG | 1.05
ACATTGGTTG | 0.934
GTCGCTACAA | 0.975
GGGTTATCTA | 0.992
GCACTAAAG | 0.987
AGGAAGCTTT | 0.978
TAGGACTTT | 1.03
TGCTCGAC | 1.21
GTAACTCTGT | 0.984
TGTTGAATTC | 1.01
TTGGGAGTGG | 0.995

Sequence | switch fluorescence ratio
AATTACTGGT | 1.2
AATTTGCAGG | 1
TGTTAATTCA | 0.984
GCGTTTAACG | 1.01
ACACGGCGGT | 1.02
CCCACGGGGT | 1.19
TTTATTGTAT | 0.961
TTTATATAAC | 1.04
GACTGAACGA | 1.24
ACAATTACTA | 1.07
GCCAGGGGCC | 1.01
CTACCCTTGC | 1.62
GTTGGTCGCC | 1.12
ATGTCAGTTG | 1.02
TTTAACTGAT | 1.01
GCCCCTCCAT | 1.1
TGAGTTAAGC | 1.02
ATCACTCTCC | 1.14
AGGACGTTAG | 0.994
TGAGGCGAAG | 1.04
GTATAGGGCG | 0.958
AGCTTAGAGT | 1
ACGGAAAGAA | 0.967
TACTTATCCG | 0.977
TACTGCAGTT | 0.974
AGACCTGA | 1.08

Sequence | switch fluorescence ratio
TCCGAGTAAA | 3.14
TCGACATCGC | 1.08
AGTCGAATTA | 0.984
ACCCACAACG | 1.24
GCTGGGTTTT | 1.05
TGCGATGATC | 1.02
TTGGCCCATA | 0.966
CATTTGACGT | 1.01
ATACGCCACG | 1.49
ATTAGAACGT | 1.03
CGAGTGATGC | 1.88
AGACTTGCGA | 1.03
GAGTCTGCCT | 0.985
TAGTGATGCT | 0.948
ACCGTGATCC | 1.54
AACCCGAAGG | 0.995
GTTCATTCC | 1.27
ATCTTTGAGG | 0.973
ACCAGTCCGT | 0.979
GGAACAGAAT | 0.989
TGTATTTTTC | 1.01
AGATAAGGGC | 1.05
AGTTCCGCTT | 1.3
ATTATTGTA | 1.03
TAATGGCCT | 1.01
ATCCCTCCCG | 1.18

Sequence | switch fluorescence ratio
AGGTCTCGAT | 0.968
GGCCAAACAT | 1.03
TGGGAGTA | 1.02
GAACTTCTTT | 0.986
AGTGTCTGTG | 0.95
TTAGTGTGGG | 1.04
GAAGGGGCTA | 1.02
GGATACAAAA | 1.02
GCCTACTTTT | 1.01
CGCAGAACTC | 3.14
TGTGGCGCAT | 0.995
TAATAATCGC | 1.01
TAGTACTGAG | 1.08
AGCGGAGGA | 0.999
ATTATAATAT | 1
CAAGGATATC | 0.997
GTATGGACA | 1.01
CTTGTGGGTA | 0.968
TACAATATTC | 1.04
AGCTGGGGT | 1.05
ACCCTTAGTG | 1.1
TTAGGGCGAT | 0.975
CGGTGGAGTG | 0.995
AGTTGAATCC | 1.04
CCGACAAGTG | 1.31
CTTATTTCGA | 0.979

Sequence | switch fluorescence ratio
CGCAGTACGT | 3.95
TCTGACCTCA | 1.08
GTTATCGGAG | 1.01
AGTGGAAACG | 0.948
GGTCGCTTTC | 0.967
AGTTGTTCAG | 1.01
GGATGTATCG | 1.02
CGTAGGCGGG | 1.01
GGACCGGATA | 1
CAAATAACTC | 1.03
AGCTCGTATA | 1.02
CGCGGAAGAC | 1.84
ATCGAATCTT | 0.947
GGGGAATAAA | 0.959
CAGAGCTCTG | 0.973
CAAATCGTCT | 1.03
CCATTACTCG | 1.15
GACTCAACTA | 1.07
AAGTTGAAGC | 1.01
GAAGTAGTCA | 0.941
TTCGCCGATT | 1.4
ATCTTTCTGT | 0.979
ATGTGATTTC | 0.973
TTTTCGATGC | 1.06
CGATTTGTTT | 0.983
GCCTTGCAAT | 1.19

Sequence | switch fluorescence ratio
GAGTGATGTG | 0.943
TTACAAATAG | 1.15
ATAGTAGTTT | 0.954
AATAACACGC | 1.01
TAGAATTTGA | 0.98
AATAATCACG | 1.02
TGCTCATAAT | 0.993
GGTGGAGTTG | 0.977
ACGAGTGAGT | 1.02
GGTGAAGGAA | 0.993
CGCCTGTCAT | 0.967
AATGGAACCT | 2.17
ATAGTGGCAG | 1.01
GGATTGCCTA | 0.977
CAAGTCGGGC | 1.01
TTTCTACGC | 1.12
CGGATGGGTC | 1.03
TGTGTCAGTT | 1
CTTTATTTA | 1.03
CTCACTTGAG | 0.997
GACAGCCCGA | 0.955
CGGGCCGGT | 1.01
AATGTATCT | 1
TGCTATTCCT | 1.01
GTCGTGAGGA | 1.01
AGGGGAGCGG | 1.04

Sequence | switch fluorescence ratio
GGTTCAATTT | 0.976
TTGCAAGGAA | 1.15
TTGGCCATTT | 1.04
TTAACCGAGA | 0.986
TATATGGACG | 0.975
GTGGAGCAA | 5.67
CTAAAAATTT | 1.06
AGAATGGCGC | 0.968
ATCTGAATT | 1.06
GATATTGTTC | 0.942
TCACGAGTCA | 0.969
GCGAGCAGTT | 0.961
CGACGGTGGC | 1.14
CACCGATACC | 1.46
TGTGATGTTC | 0.974
TCATGTGGTG | 0.959
ATGCGTTGGT | 1
GTGCGGGCGT | 1.01
CATTCACCT | 1.18
